Reference: the supplement of paper PMC7826260
This is one part of the list. Viral Rep nickase domains cut single-stranded DNA in vitro at 3 µM enzyme and 37 °C for 1 h; the strands have 90 letters, of which the middle is given. Values are log2 of uncut reads against the no-enzyme pool; more negative means more cut, near 0 not cut, and no call is made. Reads are scaled to the total; where an enzyme cuts many sequences, the uncut ones exceed 0.

Experiments:
Assay in all cases: uncleaved DNA left, log2 of reads against the no-enzyme library (log2 ratio); higher = less cleavage (more negative = more Rep cleavage of the k-mer); sequences stand for … in CTCGTCCG…ACCGGAGA
[1] = system: T1, Rep nickase domain of Muscovy duck circovirus
T1 sequence (Rep 1-111, printed without the tag): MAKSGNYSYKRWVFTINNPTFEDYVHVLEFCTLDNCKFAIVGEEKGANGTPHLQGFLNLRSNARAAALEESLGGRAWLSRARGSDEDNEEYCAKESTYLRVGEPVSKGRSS
Experimental: (§1)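 A pool of 90-nt single-stranded DNAs with seven random bases just before the constant AC of the nick site (name = the seven bases) was cut by 3 µM recombinant His6-SUMO-tagged Rep nickase domain (300 nM DNA, 50 mM HEPES pH 8.0, 50 mM NaCl, 1 mM MnCl2, 1 h, 37 °C, three replicates). Uncut DNA was amplified and sequenced.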

[2] = system: T2, Rep nickase domain of banana bunchy top virus
T2 sequence (Rep 1-94, printed without the tag): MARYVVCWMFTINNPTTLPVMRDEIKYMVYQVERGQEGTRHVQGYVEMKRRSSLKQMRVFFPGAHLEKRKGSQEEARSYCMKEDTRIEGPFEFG
Experimental: as §1

[3] = system: T3, Rep nickase domain of cabbage leaf curl virus
T3 sequence (Rep 1-116, printed without the tag): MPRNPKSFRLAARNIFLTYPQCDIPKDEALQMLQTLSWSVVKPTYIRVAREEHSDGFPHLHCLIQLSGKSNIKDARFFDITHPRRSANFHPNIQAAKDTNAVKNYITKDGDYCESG
Experimental: as §1

[4] = system: T4, Rep nickase domain of chickpea chlorotic dwarf virus
T4 sequence (Rep 1-124, printed without the tag): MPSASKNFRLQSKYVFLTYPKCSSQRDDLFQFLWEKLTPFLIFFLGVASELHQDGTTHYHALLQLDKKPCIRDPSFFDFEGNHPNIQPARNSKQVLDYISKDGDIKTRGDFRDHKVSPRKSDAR
Experimental: as §1

[5] = system: T5, Rep nickase domain of faba bean necrotic yellows virus
T5 sequence (Rep 1-98, printed without the tag): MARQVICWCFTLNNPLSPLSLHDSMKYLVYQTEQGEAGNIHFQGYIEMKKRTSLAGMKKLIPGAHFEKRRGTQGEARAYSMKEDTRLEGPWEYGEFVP
Experimental: as §1

[6] = system: T6, Rep nickase domain of maize striate mosaic virus
T6 sequence (Rep 1-117, printed without the tag): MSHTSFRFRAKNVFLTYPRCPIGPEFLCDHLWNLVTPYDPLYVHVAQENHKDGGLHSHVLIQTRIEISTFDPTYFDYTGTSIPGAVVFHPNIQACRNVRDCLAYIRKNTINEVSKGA
Experimental: as §1

[7] = system: T7, Rep nickase domain of porcine circovirus 2
T7 sequence (Rep 2-116, printed without the tag): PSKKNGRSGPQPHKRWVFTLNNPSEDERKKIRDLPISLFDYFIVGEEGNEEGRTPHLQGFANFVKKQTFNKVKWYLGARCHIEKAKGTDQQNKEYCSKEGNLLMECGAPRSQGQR
Experimental: as §1

[8] = system: T8, Rep nickase domain of tomato golden mosaic virus
T8 sequence (Rep 1-124, printed without the tag): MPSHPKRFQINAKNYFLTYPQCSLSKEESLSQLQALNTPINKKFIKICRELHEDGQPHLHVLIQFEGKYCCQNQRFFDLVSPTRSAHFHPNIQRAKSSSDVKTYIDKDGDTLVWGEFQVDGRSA
Experimental: as §1

[9] = system: T9, Rep nickase domain of tomato yellow leaf curl virus
T9 sequence (Rep 1-136, printed without the tag): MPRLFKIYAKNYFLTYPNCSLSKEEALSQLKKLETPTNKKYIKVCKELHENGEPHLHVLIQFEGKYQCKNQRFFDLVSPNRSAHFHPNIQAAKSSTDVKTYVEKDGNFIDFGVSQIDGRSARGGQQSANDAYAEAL
Experimental: as §1

[10] = system: T10, Rep nickase domain of wheat dwarf virus
T10 sequence (Rep 1-137, printed without the tag): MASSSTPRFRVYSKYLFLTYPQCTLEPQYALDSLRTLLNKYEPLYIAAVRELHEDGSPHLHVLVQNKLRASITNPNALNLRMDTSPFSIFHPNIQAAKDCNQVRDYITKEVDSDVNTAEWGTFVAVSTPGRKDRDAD
Experimental: as §1

| Sequence | uncleaved DNA left (log2) [1] | uncleaved DNA left (log2) [2] | uncleaved DNA left (log2) [3] | uncleaved DNA left (log2) [4] | uncleaved DNA left (log2) [5] | uncleaved DNA left (log2) [6] | uncleaved DNA left (log2) [7] | uncleaved DNA left (log2) [8] | uncleaved DNA left (log2) [9] | uncleaved DNA left (log2) [10] |
| --- | --- | --- | --- | --- | --- | --- | --- | --- | --- | --- |
| CGTATTT | 0.111 | -0.0245 | 0.0589 | -1.69 | -0.0806 | -0.0559 | -1.27 | 0.063 | 0.0907 | 0.0499 |
| ATGCAGG | 0.168 | 0.131 | 0.194 | 0.271 | 0.128 | -0.315 | 0.205 | 0.173 | 0.154 | 0.113 |
| TATTCGA | -0.267 | -0.108 | -0.731 | -1.09 | -0.0744 | -1.31 | -0.114 | -0.192 | -0.0796 | -0.218 |
| AACTGCT | -2.28 | -0.575 | -0.653 | -1.15 | 0.0995 | -0.889 | -3.6 | -0.0547 | 0.0683 | -0.0103 |
| CCTAGGG | -0.0984 | -0.106 | -0.28 | -0.214 | -0.00164 | -0.673 | 0.145 | 0.0204 | -0.12 | -0.0848 |
| ACGGGAT | 0.0204 | -0.0225 | 0.271 | 1.5 | -0.0761 | 1.89 | 0.313 | 0.2 | -0.163 | -0.092 |
| CCATATG | -0.147 | 0.00749 | -0.771 | -0.435 | -0.0312 | -0.991 | 0.116 | -0.106 | -0.117 | -0.0891 |
| AGCGCCC | -0.0345 | -0.0101 | 0.134 | 0.586 | -0.049 | 0.983 | -0.0723 | 0.0542 | -0.0297 | 0.0224 |
| AAGTCCA | -0.0591 | -0.119 | 0.0412 | -1.84 | -0.148 | 0.0517 | -2.85 | 0.00963 | -0.00903 | -0.044 |
| AAGTGTG | 0.0388 | -0.0394 | -0.55 | -0.323 | 0.0782 | -0.867 | 0.0139 | -0.00362 | 0.0842 | -0.00505 |
| GGTATCG | -0.0474 | -0.0725 | -0.537 | -0.412 | -0.0561 | -0.655 | -0.0264 | -0.0606 | -0.0537 | -0.163 |
| AGGATCC | 0.0929 | 0.0622 | 0.123 | 0.618 | -0.0298 | 0.653 | 0.0672 | -0.0357 | 0.0184 | 0.11 |
| GCGGCTG | -0.0872 | 0.0656 | 0.0793 | 0.647 | -0.0505 | 1.77 | -0.0373 | -0.02 | -0.0117 | 0.0888 |
| AATTAGA | -0.207 | -0.0907 | -0.277 | -0.61 | 0.0281 | -1.16 | -0.199 | 0.0188 | -0.039 | 0.00339 |
| GAACGTA | 0.00478 | -0.0512 | 0.313 | -0.0449 | -0.0174 | 0.963 | 0.0156 | 0.0196 | 0.106 | -0.00978 |
| TAAAAAT | -0.0449 | 0.0582 | -3.61 | -3.38 | 0.00268 | -2.12 | -1.49 | -2.76 | 0.02 | -3.47 |
| AATCATC | 0.0379 | 0.0673 | 0.0143 | -0.364 | -0.0254 | -0.746 | 0.0857 | -0.027 | 0.00438 | 0.0827 |
| AGCGATC | 0.11 | -0.000584 | 0.119 | 0.631 | -0.0177 | 1.05 | -0.0307 | 0.0258 | -0.0727 | 0.0744 |
| ACAACTT | -0.00717 | -0.131 | -0.207 | -2.56 | 0.0462 | -0.598 | -0.35 | 0.00978 | -0.0931 | -0.0539 |
| CGGGTTG | -0.0734 | -0.163 | -0.104 | 0.272 | -0.0807 | 0.442 | -0.0128 | -0.0036 | -0.224 | -0.0133 |
| CTAACTG | 0.0125 | 0.143 | -0.196 | -0.155 | 0.0218 | 0.823 | 0.0146 | 0.00337 | 0.0294 | 0.0459 |
| ACCTACG | -0.122 | -0.0431 | -0.727 | 0.356 | 0.0692 | -0.44 | 0.154 | -0.0832 | -0.0885 | 0.0353 |
| CCAATGA | -0.142 | -0.178 | -0.202 | -0.225 | -0.0279 | -1.13 | 0.0123 | -0.155 | -0.0924 | -0.159 |
| CACCTTG | 0.138 | 0.0878 | -0.517 | -1.41 | 0.157 | -0.932 | -0.091 | -0.0101 | 0.0782 | -0.00653 |
| CGGGTGG | 0.0086 | -0.115 | -0.0966 | 0.391 | -0.2 | 0.189 | 0.0127 | -0.0512 | -0.0719 | -0.105 |
| GAGAGTC | -0.0188 | 0.0568 | 0.254 | 0.831 | 0.0296 | 0.816 | 0.041 | -0.0956 | 0.0529 | 0.0647 |
| GGGCTTA | -0.021 | -0.0309 | 0.821 | 1.73 | -0.0172 | 2.12 | 0.152 | -0.0789 | 0.119 | -0.0636 |
| ACGGCAT | -0.117 | -0.139 | -0.00476 | 0.424 | -0.0664 | 0.232 | -0.0751 | -0.0621 | -0.201 | -0.065 |
| GCCGTTC | 0.0389 | -0.0809 | 0.259 | 0.31 | 0.0503 | 0.138 | 0.012 | 0.0947 | 0.126 | -0.0814 |
